Laboratory results as given in PubChem BioAssay AID588591 (National Center for Advancing Translational Sciences (NCATS), 2011).
Out of some 390,000 compounds screened, about 4,700 (1.2%) were called active. Inconclusive results (about 4%) are left out. Calls follow the shape of the dose curve; as a rule, active = well fitted inhibition curve with a large enough effect; inconclusive = small, poorly fitted or top-dose-only effect, or another doubt; inactive = no such curve, though single readings can be large or run the other way. The entries are a selection whose mix differs from that of the whole data set. Where a SMILES comes first, the peptide text is derived from it. Bridges are numbered along the chain shown (N, C = ends). [ ]: non-standard residue; d: D form. The star is where a group is joined. X1 = CCC(C)C(N)C1=NC(C(=O)*)CS1; dOrn = NCCC[C@@H](N)C(=O)O

Target: DNA polymerase eta (Homo sapiens) (UniProt Q9Y253)
UniProt Q9Y253, sequence (Q9Y253 whole entry, looked up): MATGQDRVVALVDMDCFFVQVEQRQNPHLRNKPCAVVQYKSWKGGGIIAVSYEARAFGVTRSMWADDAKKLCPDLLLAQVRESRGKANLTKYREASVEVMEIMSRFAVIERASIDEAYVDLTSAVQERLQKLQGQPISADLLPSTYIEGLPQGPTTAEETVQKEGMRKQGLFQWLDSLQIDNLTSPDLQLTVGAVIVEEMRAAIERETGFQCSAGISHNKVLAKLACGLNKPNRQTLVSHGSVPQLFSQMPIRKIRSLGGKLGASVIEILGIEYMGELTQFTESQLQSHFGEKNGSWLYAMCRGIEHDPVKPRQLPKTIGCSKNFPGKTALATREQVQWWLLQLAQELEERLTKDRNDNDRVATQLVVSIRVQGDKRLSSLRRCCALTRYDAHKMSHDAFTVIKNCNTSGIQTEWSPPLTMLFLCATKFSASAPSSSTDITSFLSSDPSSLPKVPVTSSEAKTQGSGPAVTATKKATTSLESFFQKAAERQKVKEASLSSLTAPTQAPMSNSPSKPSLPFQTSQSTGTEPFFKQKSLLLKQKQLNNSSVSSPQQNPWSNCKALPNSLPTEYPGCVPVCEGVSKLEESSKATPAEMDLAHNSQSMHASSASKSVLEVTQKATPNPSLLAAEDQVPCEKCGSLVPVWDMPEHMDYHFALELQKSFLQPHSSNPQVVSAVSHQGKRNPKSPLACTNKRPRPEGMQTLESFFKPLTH
Assay: qHTS for Inhibitors of Polymerase Eta
Conditions: recombinant Pol eta, fluorescent DNA replication assay; series mostly up to 114 µM; activity change, negative = inhibition: at the top concentration
In short: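 Pol eta at 10 nM preincubated with compounds 15 min at room temperature; reaction started with fluorescent substrate (50 nM final) and read kinetically at 0 and 10 min.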
% is scaled to controls: 0 for no effect and ±100 for the full control effect; potency is read from the fitted curve at half-maximal effect.

| SMILES | Potency | activity change, negative = inhibition |
| --- | --- | --- |
| O=C(O)CC1CCC(=C(Cl)Cl)C1 (stereo unspecified) | active: 50.1 µM |  |
| CCC(C)C(N)C1=NC(C(=O)N[C@@H](CC(C)C)C(=O)N[C@H](CCC(=O)O)C(=O)N[C@H](C(=O)N[C@H]2CCCCNC(=O)[C@H](CC(N)=O)NC(=O)[C@@H](CC(=O)O)NC(=O)[C@H](Cc3cnc[nH]3)NC(=O)[C@@H](Cc3ccccc3)NC(=O)[C@H]([C@@H](C)CC)NC(=O)[C@@H](CCCN)NC2=O)[C@@H](C)CC)CS1 (stereo partly specified) (X1-L[dE]IK[dOrn]I[dF]H[dD]N; lactam 4-C) |  | inactive: -0.728% |
| CNC(=O)NC(=O)CSc1ncc(C(F)(F)F)cc1Cl |  | inactive: 10.1% |
| O=C(O)c1cc(S(=O)(=O)Nc2ccc3oc(=O)sc3c2)ccc1O | active: 14.1 µM |  |
| COc1ccc2c3c([nH]c2c1)C1CC2C(CC(O)C(OC)C2C(=O)O)CN1CC3 (stereo unspecified) |  | inactive: -7.34% |
| c1ccc(CSc2nnc3ccc(-c4ccncc4)nn23)nc1 |  | inactive: 24.2% |
| Cc1cccc(NC(=O)CSc2nc3c(sc4ccccc43)c(=O)n2CCCC(=O)NC2CCCC2)c1 |  | inactive: 18.7% |
| CSCCC(NC(=O)/C(=C/c1ccco1)NC(=O)c1ccco1)C(=O)O (stereo unspecified) |  | inactive: -22.7% |
| O=c1cc(-c2ccc(O)cc2)oc2cc(O)c([C@@H]3O[C@H](CO)[C@@H](O)[C@H](O)[C@H]3O)c(O)c12 |  | inactive: 8.8% |
| CN(CC(=O)Nc1ccc(F)cc1)C(=O)CCc1nc2sc3c(c2c(=O)[nH]1)CCCC3 | active: 15.8 µM |  |
| COc1ccc(N2CCN(c3ncnc4c3cnn4C)CC2)cc1 |  | inactive: 20.1% |
| O=C(O)c1cc(O)c2c(c1)[C@H]([C@H]1c3cc(C(=O)O)cc(O)c3C(=O)c3c(O[C@@H]4O[C@H](CO)[C@@H](O)[C@H](O)[C@H]4O)cccc31)c1cccc(OC3O[C@H](CO)[C@@H](O)[C@H](O)[C@H]3O)c1C2=O (stereo partly specified) |  | inactive: -99.1% |
| COc1ccc([C@@H]2CC(=O)c3c(O)cc(O[C@@H]4OC(CO[C@@H]5OC(C)[C@H](O)[C@@H](O)[C@H]5O)[C@@H](O)[C@H](O)[C@H]4O)cc3O2)cc1O (stereo partly specified) |  | inactive: -10% |
| NC(C(=O)N[C@@H]1C(=O)N2C(C(=O)O)=C(Cl)CS[C@H]12)c1ccccc1 (stereo partly specified) |  | inactive: -1.2% [at 57.1 µM] |
| O=Nc1c(O)n(Cc2ccccc2)c2ccccc12 |  | inactive: 33.5% |
| CCOC(=O)CSc1ncnc2c1c(-c1ccccc1)cn2-c1ccc(OC)cc1 |  | inactive: -0.704% |
| COc1ccc(NC(=O)c2c[nH]n3c(=O)cc(C4CCN(C(=O)OC(C)(C)C)CC4)nc23)cc1Cl | active: 89.1 µM |  |
| O=C(O)CCc1ccc(-c2ccc(Br)cc2)n1Cc1ccco1 | active: 56.2 µM |  |
| O=C1/C(=C/c2ccco2)SC(=S)N1C1CCS(=O)(=O)C1 (stereo unspecified) |  | inactive: -8.27% |
| COCCNS(=O)(=O)c1ccc2c(c1)n(C)c(=O)n2C |  | inactive: 148% |
| Cc1cccc(C(=O)Nc2nnc(S(=O)(=O)N(C)Cc3ccco3)s2)c1 |  | inactive: -24.3% |

| SMILES | Potency | activity change, negative = inhibition |
| --- | --- | --- |
| O=C(C1CCCN(S(=O)(=O)c2ccc(Br)s2)C1)N1CCN(c2ccccc2)CC1 (stereo unspecified) |  | inactive: -15.7% |
| C=CCOC(=O)C1=C[C@H](c2ccc(C(F)(F)F)cc2)C[C@H](OCCCCO)O1 |  | inactive: -3.21% |
| O=C(COc1ccccc1)Nc1nnc(S(=O)(=O)N2CCCC2)s1 |  | inactive: -10.1% |
| COc1cccc(N2CC(O)Cn3c2nc2c3c(=O)[nH]c(=O)n2C)c1 (stereo unspecified) |  | inactive: 4.16% |
| O=c1[nH]c(-c2ccccc2)ncc1Oc1ccccc1 |  | inactive: 30.9% |
| C=CCOC(=O)C1=C[C@H](c2ccc3c(c2)OCO3)C[C@H](OCCCCO)O1 |  | inactive: -18.3% |
| COc1cc(/C=N/NC(=O)c2cncc(Br)c2)cc([N+](=O)[O-])c1O |  | inactive: 30.4% |
| COc1ccc(-c2nnn(-c3ccc(Cl)cc3Cl)c2N)cc1 |  | inactive: 29.6% |
| COc1ccc2c(c1)CC(NC(=O)Nc1c(C)cc(C)cc1C)CO2 (stereo unspecified) |  | inactive: 16.3% |
| COc1ccc(NS(=O)(=O)c2cc([N+](=O)[O-])ccc2N/N=C\c2c(C)[nH]c3ccccc23)cc1 |  | inactive: -10.7% |
| O=C(CCCN1C(=O)/C(=C\c2cccs2)SC1=S)NNC(=O)c1cccnc1 |  | inactive: -14.3% |
| NNC(=O)[C@H]1C[C@@H]1c1ccccc1 |  | inactive: -7.59% |
| CC[C@H](C)/C=C/C1=CC2=C(Cl)C(=O)[C@@]3(C)OC(=O)C(C(=O)[C@H](C)[C@@H](C)O)=C3C2=CO1 | active: 17.8 µM |  |
| O=C(O)c1cccc(-n2cccc2/C=N/O)c1 | active: 3.16 µM |  |
| O=C1/C(=C\c2ccccn2)SC(=S)N1c1ccc(S(=O)(=O)Nc2nccs2)cc1 | active: 17.8 µM |  |
| Cc1ccc(NC(=O)NCC2CCN(Cc3cccc(Cl)c3)CC2)cc1Cl |  | inactive: -9.19% |
| CCc1ccc(-n2c(SCC(=O)N3Cc4ccccc4CC3C(=O)O)nnc2-c2ccncc2)cc1 (stereo unspecified) | active: 22.4 µM |  |
| O=C(O)CCN1C(=O)/C(=C\c2cccc(Oc3ccccc3)c2)SC1=S | active: 39.8 µM |  |
| Cc1c(CCOC(=O)c2ccc(N3CCOCC3)c([N+](=O)[O-])c2)sc[n+]1CC#N | active: 50.1 µM |  |
| CC(=O)C[C@@H](O)CC(=O)[C@@H]1OC(=O)[C@@H](C)C/C=C\Cc2ccccc21 |  | inactive: -11.8% |
| NCCCC[C@H]1NC(=O)[C@H](CCC(=O)O)NC(=O)c2cc([N+](=O)[O-])cc(I)c2OCC[C@@H](C(N)=O)NC1=O |  | inactive: -98.3% |

| SMILES | Potency | activity change, negative = inhibition |
| --- | --- | --- |
| Cc1ccc(C(=O)N/C(=C\c2ccc(Cl)cc2)C(=O)NC2CCCCC2)cc1 |  | inactive: 18.8% |
| Cc1cc(/C=N/NC(=O)C(O)(c2ccccc2)c2ccccc2)c(C)n1-c1cccc(C(=O)O)c1 | active: 10 µM |  |
| O=c1c2ccccc2nc2c3ccccc3cnn12 |  | inactive: 14.2% |
| COc1ccc(C(=O)CC(=O)C(=O)Nc2ccccc2Cl)cc1 |  | inactive: 17.6% |
| N=C1/C(=C\c2ccc(Br)o2)C(=O)N=C2SC(CC(=O)N3CCOCC3)=NN12 | active: 17.8 µM |  |
| CC(=O)N1CCc2c(sc(NC(=O)C3COc4ccccc4O3)c2C(N)=O)C1 (stereo unspecified) | active: 22.4 µM |  |
| COc1cc(C2Oc3cc(C4Oc5cc(O)cc(O)c5C(=O)C4O)ccc3OC2CO)ccc1O (stereo unspecified) |  | inactive: -6.17% |
| C/C=C(/C)C(=O)OC1CC(C)(C)C[C@H]2C3=CC[C@@H]4[C@@]5(C)CCC(O[C@@H]6O[C@@H](C(=O)O)[C@@H](O)C(O[C@@H]7OC[C@H](O)[C@@H](O)[C@@H]7O[C@@H]7OC(CO)C(O)[C@@H](O)[C@@H]7O)C6O[C@@H]6OC(CO)C(O)C(O)C6O)[C@@](C)(CO)[C@@H]5CC[C@]4(C)[C@]3(C)CC(O)[C@@]12CO (stereo partly specified) |  | inactive: -7.62% |
| CC1=C(/C=C/C(C)=C/C=C/C(C)=C/C(=O)O)C(C)(C)CCC1 | inactive |  |
| COc1cccc2cc(C(=O)C3=C(O)C(=O)N(Cc4ccco4)C3c3cccnc3)oc12 (stereo unspecified) | active: 3.55 µM |  |
| Cc1ccc(C(=O)Oc2cc(-c3ccc4c(c3)OCO4)cc(=O)c3c(C)oc(C)c23)cc1 | active: 79.4 µM |  |
| C=CC[C@@H](CC(=O)N(CCO)Cc1ccccc1)C(=O)N[C@H](COC(=O)[C@@H](CC=C)CC(=O)OC(C)(C)C)c1ccccc1 |  | inactive: -29.6% |
| C=CC[C@@H](CC(=O)N(CCO)Cc1ccccc1)C(=O)N[C@H](COC(=O)[C@H](CC=C)CC(=O)OC(C)(C)C)Cc1c[nH]c2ccccc12 |  | inactive: -25.9% |
| CCOC(=O)c1c(NS(=O)(=O)c2ccc(Br)cc2)sc2c1CCC2 | active: 20 µM |  |
| Cc1ccc(Cl)cc1NC(=O)c1ccc(NC(=O)CCC(=O)O)cc1 |  | inactive: -0.158% |
| Cc1ccc(NC(=O)CCCn2c(=O)c3cccn3c3cccnc32)cc1C |  | inactive: 15.8% |
| O=C1NC(=S)S/C1=C\C=C\c1ccc([N+](=O)[O-])o1 | active: 2.24 µM |  |
| C/C(=N\NC(=O)Cn1cc([N+](=O)[O-])cn1)c1ccco1 |  | inactive: 39.6% |
| COc1ccccc1NC(=O)/C(C#N)=C/c1cccn1C |  | inactive: 16.1% |
| CCCCCCCCCCCCCCCC(O)C(N)CO (stereo unspecified) |  | inactive: -9.43% |
| CN(c1ccccc1)S(=O)(=O)c1nnc(NC(=O)c2ccco2)s1 |  | inactive: -19% |

| SMILES | Potency | activity change, negative = inhibition |
| --- | --- | --- |
| CC1=NN(c2ccc(C)c(C)c2)C(=O)/C1=C\C=C\c1ccc([N+](=O)[O-])o1 | active: 39.8 µM |  |
| Cc1ccc(N2C(=O)CC(N3CCN/C3=C3\CC/C(=C\c4ccccc4)C3=O)C2=O)cc1 (stereo unspecified) |  | inactive: 17.1% |
| CC(=O)Nc1ccc(NC(=O)c2cc(=O)c3ccccc3o2)cc1 |  | inactive: -10.6% |
| O=C(NCc1nnc(SCc2ccc(C(F)(F)F)cc2)n1-c1ccccc1)C12CC3CC(CC(C3)C1)C2 |  | inactive: -24.6% |
| CC1=C(C(=O)Nc2ccc(C)cc2C)C(c2ccc(Cl)cc2)n2nc(C(=O)OC(C)C)nc2N1 (stereo unspecified) |  | inactive: -2.77% |
| CNc1ccc(Br)cc(C(=O)/C=C/c2cc(OC)ccc2OC)c1=O | active: 14.1 µM |  |
| O=C(O)C1=C(C(=O)O)C2CCC1C2 | active: 17.8 µM |  |
| Cc1cc(C(F)F)nn1CC(=O)NC1C(=O)N2C(C(=O)O)=C(CSc3nnnn3C)CSC12 (stereo unspecified) | active: 28.2 µM |  |
| CCN1C(=O)[C@@H]2[C@@H](c3ccc(-c4ccc(C(C)=O)cc4)cc3)N3CCC[C@@]3(C(=O)OC)[C@@H]2C1=O |  | inactive: -9.8% |
| O=C1N/C(=N/NC(=O)c2cccc3ccccc23)S/C1=C\c1ccccc1OCc1ccccc1 | active: 22.4 µM |  |
| CC(C)Oc1ccc(CNS(=O)(=O)c2csc(C(N)=O)c2)cc1 |  | inactive: 2.32% |
| C[C@H](CO)N1C[C@H](C)[C@H](CN(C)C(=O)Nc2cccc(Oc3ccccn3)c2)OCc2cnnn2CCCC1=O |  | inactive: -9.72% |
| COc1ccc(S(=O)(=O)/N=C2/NC(=O)/C(=C\c3ccco3)S2)cc1 | active: 17.8 µM |  |
| CSCC[C@H](NC(=O)C1=NN(c2c(F)c(F)cc(F)c2F)C(=O)CC1)c1nc2ccccc2[nH]1 |  | inactive: 33.3% |
| OCC[C@@H]1C[C@@H](O)[C@H](O)[C@]2(CCCc3ccccc3O2)O1 |  | inactive: -3.35% |
| C[C@](N)(Cc1ccc(O)c(O)c1)C(=O)O |  | inactive: 3.99% |
| OCC[C@@H]1C[C@@H](O)[C@H](O)[C@@]2(CCCc3ccccc3O2)O1 |  | inactive: -18.6% |
| COc1ccc(/C=C/C(=O)O)cc1S(=O)(=O)N1CCC(C)CC1 | active: 79.4 µM |  |
